Values quoted from earlier work in US4652586A, “Selective beta-2 adrenergic antagonists for the treatment of glaucoma” (priority 1980, dated 1987).

How the values were obtained:
[1] = target: beta2 adrenergic receptor present in mammalian lung; details: Table I column D; data from Minneman et al; read-out: Kd for IHYP Binding, Lung (D); cited from earlier work
lung adenylate cyclase = lung adenylate cyclase (Rattus norvegicus, UniProt P10608)
Sequence of lung adenylate cyclase (P10608 whole entry): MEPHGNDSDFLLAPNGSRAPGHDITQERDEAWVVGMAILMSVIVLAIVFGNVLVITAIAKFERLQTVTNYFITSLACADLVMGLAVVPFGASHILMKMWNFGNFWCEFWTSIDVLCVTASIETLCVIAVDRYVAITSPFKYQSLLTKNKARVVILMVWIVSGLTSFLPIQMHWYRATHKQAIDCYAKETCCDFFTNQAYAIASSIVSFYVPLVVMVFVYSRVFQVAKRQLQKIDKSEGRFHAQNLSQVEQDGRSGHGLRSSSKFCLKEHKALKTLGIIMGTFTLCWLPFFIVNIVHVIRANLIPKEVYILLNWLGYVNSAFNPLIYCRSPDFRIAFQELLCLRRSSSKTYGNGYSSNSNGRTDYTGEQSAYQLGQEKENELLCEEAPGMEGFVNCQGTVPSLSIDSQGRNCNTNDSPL

## Cc1ccc(C(O)C(C)NC(C)C)cc1 (centres unmarked) [H35/25, (1(4'-methyl phenyl)-2-isopropylaminopropanol)]
[1]
  Kd: 840 nM
Lung adenylate cyclase; read-out: Adenylate Cyclase Ki, Lung (F); antagonists; Table I column F; data from Minneman et al; cited from earlier work
  Ki: 850 nM

## COc1ccc(OC)c(C(O)C(C)NC(C)(C)C)c1 (centres unmarked) [Butoxamine]
[1]
  Kd: 3550 nM
Lung adenylate cyclase; antagonists; Table I column F; data from Minneman et al; read-out: Adenylate Cyclase Ki, Lung (F); cited from earlier work
  Ki: 1350 nM

## CC(=O)Nc1ccc(OCC(O)CNC(C)C)cc1 (centres unmarked) [Practolol, practolol]
[1]
  Kd: 26000 nM

Like-named read-outs stand apart in the source and are kept apart here.
